In patent publication US11999716B2, “WDR5 inhibitors and modulators” (priority 2018, dated 2024):

Target: WDR5 (Homo sapiens, UniProt P61964)
Experiment: biochemical
Type: binding
Details: Ki for Inhibition of WDR5 by TR-FRET assay, WDR5-His tag (Δ23, residues 24-334) 2 nM; 10mer-Thr-FAM probe 150 nM; Tb-anti-HIS 1 nM; 60 min, room temperature

| SMILES | Ki |
| --- | --- |
| CCn1cc(-c2cc(Cc3cncn3C)cc3c2CCN([C@@H](C)c2cc(OC)ccn2)C3=O)c(C(F)(F)F)n1 [Example 257, (S)-5-(1-Ethyl-3-(trifluoromethyl)-1H-pyrazol-4-yl)-2-(1-(4-methoxypyridin-2-yl)ethyl)-7-((1-methyl-1H-imidazol-5-yl)methyl)-3,4-dihydroisoquinolin-1(2H)-one] | < 0.05 nM |
| COc1ccnc([C@H](C2CC2)N2CCc3c(cc(Cn4ccnc4C)cc3-c3cn(C)nc3C(F)(F)F)C2=O)c1 [Example 251, (S)-2-(Cyclopropyl(4-methoxypyridin-2-yl)methyl)-7-((2-methyl-1H-imidazol-1-yl)methyl)-5-(1-methyl-3-(trifluoromethyl)-1H-pyrazol-4-yl)-3,4-dihydroisoquinolin-1(2H)-one] | < 0.05 nM |

Same assay, conditions: WDR5-His tag (Δ23, residues 24-334) 2 nM; 10mer-Thr-FAM probe 150 nM; Tb-anti-HIS 1 nM; 60 min, room temperature; read-out: Ki for Inhibition of WDR5 by TR-FRET assay

| Ki | SMILES |
| --- | --- |
| < 0.05 nM | CCn1cc(-c2cc(Cn3ccn(C4CC4)c3=N)cc3c2CCN(Cc2cc(OC)ccn2)C3=O)c(C(F)(F)F)n1 [Example 58, 7-((3-Cyclopropyl-2-imino-2,3-dihydro-1H-imidazol-1-yl)methyl)-5-(1-ethyl-3-(trifluoromethyl)-1H-pyrazol-4-yl)-2-((4-methoxypyridin-2-yl)methyl)-3,4-dihydroisoquinolin-1(2H)-one] |
| < 0.05 nM | CCn1cc(-c2cc(Cn3cnn(C)c3=N)cc3c2CCN(Cc2cc(C)nn2C)C3=O)c(C(F)(F)F)n1 [Example 128, 2-((1,3-Dimethyl-1H-pyrazol-5-yl)methyl)-7-((5-imino-1-methyl-1,5-dihydro-4H-1,2,4-triazol-4-yl)methyl)-5-(1-ethyl-3-(trifluoromethyl)-1H-pyrazol-4-yl)-3,4-dihydroisoquinolin-1(2H)-one] |
| < 0.05 nM | CCn1cc(-c2cc(Cn3cnc(C)c3C)cc3c2CCN([C@@H](C)c2cc(OC)ccn2)C3=O)c(C(F)(F)F)n1 [Example 178, (S)-7-((4,5-Dimethyl-1H-imidazol-1-yl)methyl)-5-(1-ethyl-3-(trifluoromethyl)-1H-pyrazol-4-yl)-2-(1-(4-methoxypyridin-2-yl)ethyl)-3,4-dihydroisoquinolin-1(2H)-one] |
| < 0.05 nM | CCn1cc(-c2cc(Cn3ccn(C)c3=N)cc3c2CCN([C@@H](C)c2cc(OC)ccn2)C3=O)c(C(F)(F)F)n1 [Example 66, (S)-5-(1-Ethyl-3-(trifluoromethyl)-1H-pyrazol-4-yl)-7-((2-imino-3-methyl-2,3-dihydro-1H-imidazol-1-yl)methyl)-2-(1-(4-methoxypyridin-2-yl)ethyl)-3,4-dihydroisoquinolin-1(2H)-one] |
| < 0.05 nM | CCn1cc(-c2cc(Cn3ccnc3NC)cc3c2CCN([C@@H](C)c2cc(OC)ccn2)C3=O)c(C(F)(F)F)n1 [Example 161, (S)-5-(1-Ethyl-3-(trifluoromethyl)-1H-pyrazol-4-yl)-2-(1-(4-methoxypyridin-2-yl)ethyl)-7-((2-(methylamino)-1H-imidazol-1-yl)methyl)-3,4-dihydroisoquinolin-1(2H)-one] |
| 0.04 nM | Cc1cc([C@H](C)N2CCc3c(cc(Cn4ccn(C)c4=N)cc3-c3cn(C)nc3C(F)(F)F)C2=O)ccc1F [Example 79, (S)-2-(1-(4-Fluoro-3-methylphenyl)ethyl)-7-((2-imino-3-methyl-2,3-dihydro-1H-imidazol-1-yl)methyl)-5-(1-methyl-3-(trifluoromethyl)-1H-pyrazol-4-yl)-3,4-dihydroisoquinolin-1(2H)-one] |
| < 0.05 nM | Cc1cncc(CN2CCc3c(cc(Cn4ccnc4C)cc3-c3cn(C)nc3C(F)(F)F)C2=O)c1 [Example 157, 7-((2-Methyl-1H-imidazol-1-yl)methyl)-5-(1-methyl-3-(trifluoromethyl)-1H-pyrazol-4-yl)-2-((5-methylpyridin-3-yl)methyl)-3,4-dihydroisoquinolin-1(2H)-one] |
| < 0.05 nM | CCn1cc(CN2CCc3c(cc(Cn4ccoc4=N)cc3-c3cn(CC)nc3C(F)(F)F)C2=O)nn1 [Example 96, 2-((1-Ethyl-1H-1,2,3-triazol-4-yl)methyl)-5-(1-ethyl-3-(trifluoromethyl)-1H-pyrazol-4-yl)-7-((2-iminooxazol-3(2H)-yl)methyl)-3,4-dihydroisoquinolin-1(2H)-one] |
| 0.11 nM | CCn1cc(-c2cc(Cn3ccn(C)c3=N)cc3c2CN(Cc2cc(OC)ccn2)C3=O)c(C(F)(F)F)n1 [Example 137, 4-(1-Ethyl-3-(trifluoromethyl)-1H-pyrazol-4-yl)-6-((2-imino-3-methyl-2,3-dihydro-1H-imidazol-1-yl)methyl)-2-((4-methoxypyridin-2-yl)methyl)isoindolin-1-one] |

Continued, compound first:

| SMILES | Ki |
| --- | --- |
| Cc1nccn1Cc1cc2c(c(-c3cn(C)nc3C(F)(F)F)c1)CCN(c1ccc(F)cc1OCC1CC1)C2=O [Example 253, 2-(2-(Cyclopropylmethoxy)-4-fluorophenyl)-7-((2-methyl-1H-imidazol-1-yl)methyl)-5-(1-methyl-3-(trifluoromethyl)-1H-pyrazol-4-yl)-3,4-dihydroisoquinolin-1(2H)-one] | 0.21 nM |
| COc1cc(CN2CCc3c(cc(Cn4ccnc4C4CC4)cc3-c3ccc(F)cc3C)C2=O)cc(OC)c1 [Example 16, 7-((2-Cyclopropyl-1H-imidazol-1-yl)methyl)-2-(3,5-dimethoxybenzyl)-5-(4-fluoro-2-methylphenyl)-3,4-dihydroisoquinolin-1(2H)-one] | 0.086 nM |
| O=C1c2cc(Cn3ccnc3)ccc2CCN1Cc1cc(Cl)cc(Cl)c1 [Example 1, 7-((1H-Imidazol-1-yl)methyl)-2-(3,5-dichlorobenzyl)-3,4-dihydroisoquinolin-1(2H)-one] | 7.3 nM |
| Cc1cc([C@H](C)N2CCc3c(cc(Cn4ccn(C)c4=N)cc3-c3cn(C)nc3C)C2=O)ccc1F [Example 143, (S)-5-(1,3-Dimethyl-1H-pyrazol-4-yl)-2-(1-(4-fluoro-3-methylphenyl)ethyl)-7-((2-imino-3-methyl-2,3-dihydro-1H-imidazol-1-yl)methyl)-3,4-dihydroisoquinolin-1(2H)-one] | < 0.05 nM |
| COc1cc(CN2CCc3c(cc(Cn4ccn(C)c4=N)cc3-c3ccc(C)nc3C)C2=O)cc(OC)c1 [Example 68, 2-(3,5-Dimethoxybenzyl)-5-(2,6-dimethylpyridin-3-yl)-7-((2-imino-3-methyl-2,3-dihydro-1H-imidazol-1-yl)methyl)-3,4-dihydroisoquinolin-1(2H)-one] | 0.056 nM |
| COc1ccnc(CN2CCc3c(cc(Cn4ccccc4=N)cc3-c3cn(C)nc3C)C2=O)c1 [Example 117, 5-(1,3-Dimethyl-1H-pyrazol-4-yl)-7-((2-iminopyridin-1(2H)-yl)methyl)-2-((4-methoxypyridin-2-yl)methyl)-3,4-dihydroisoquinolin-1(2H)-one] | 3.1 nM |
| COc1ccnc(CN2CCc3c(cc(CNC(=N)C4CC4)cc3-c3cn(C)nc3C)C2=O)c1 [Example 119, N-((5-(1,3-Dimethyl-1H-pyrazol-4-yl)-2-((4-methoxypyridin-2-yl)methyl)-1-oxo-1,2,3,4-tetrahydroisoquinolin-7-yl)methyl)cyclopropanecarboximidamide] | 0.79 nM |
| CCc1nccn1Cc1cc2c(c(-c3ccc(F)cc3C)c1)CCN([C@H](c1cc(C)ccn1)C1CC1)C2=O [Example 13, (S)-2-(Cyclopropyl(4-methylpyridin-2-yl)methyl)-7-((2-ethyl-1H-imidazol-1-yl)methyl)-5-(4-fluoro-2-methylphenyl)-3,4-dihydroisoquinolin-1(2H)-one] | < 0.05 nM |
| COc1cc(CN2CCc3c(OC4CCC4)cc(Cn4ccn(C)c4=N)cc3C2=O)cc(OC)c1 [Example 69, 5-Cyclobutoxy-2-(3,5-dimethoxybenzyl)-7-((2-imino-3-methyl-2,3-dihydro-1H-imidazol-1-yl)methyl)-3,4-dihydroisoquinolin-1(2H)-one] | 0.55 nM |
| COc1ccnc(CN2CCc3c(cc(Cn4ccn(C(F)F)c4=N)cc3-c3cn(C)nc3C(F)(F)F)C2=O)c1 [Example 61, 7-((3-(Difluoromethyl)-2-imino-2,3-dihydro-1H-imidazol-1-yl)methyl)-2-((4-methoxypyridin-2-yl)methyl)-5-(1-methyl-3-(trifluoromethyl)-1H-pyrazol-4-yl)-3,4-dihydroisoquinolin-1(2H)-one] | < 0.05 nM |
| Cc1ccc2[nH]ncc2c1-c1cc(CN2CCc3c(cc(Cn4ccnc4C)cc3-c3cn(C)nc3C(F)(F)F)C2=O)cc(OC(F)(F)F)c1 [Example 220, 7-((2-Methyl-1H-imidazol-1-yl)methyl)-2-(3-(5-methyl-1H-indazol-4-yl)-5-(trifluoromethoxy)benzyl)-5-(1-methyl-3-(trifluoromethyl)-1H-pyrazol-4-yl)-3,4-dihydroisoquinolin-1(2H)-one] | 0.13 nM |
| Cc1nccn1Cc1cc2c(c(-c3cn(C)nc3C(F)(F)F)c1)CCN(CC1CCCOC1)C2=O (centres unmarked) [Example 167, 7-((2-Methyl-1H-imidazol-1-yl)methyl)-5-(1-methyl-3-(trifluoromethyl)-1H-pyrazol-4-yl)-2-((tetrahydro-2H-pyran-3-yl)methyl)-3,4-dihydroisoquinolin-1(2H)-one] | 0.53 nM |
| CCn1cc(-c2cc(Cn3ccsc3=N)cc3c2CCN(Cc2cc(OC)ccn2)C3=O)cn1 [Example 102, 5-(1-ethyl-1H-pyrazol-4-yl)-7-((2-iminothiazol-3(2H)-yl)methyl)-2-((4-methoxypyridin-2-yl)methyl)-3,4-dihydroisoquinolin-1(2H)-one] | 2.6 nM |
| COc1ccnc(CN2CCc3c(cc(Cn4cc5n(c4=N)CCC5)cc3-c3cn(C)nc3C(F)(F)F)C2=O)c1 [Example 62, 7-((3-Imino-6,7-dihydro-3H-pyrrolo[1,2-c]imidazol-2(51/)-yl)methyl)-2-((4-methoxypyridin-2-yl)methyl)-5-(1-methyl-3-(trifluoromethyl)-1H-pyrazol-4-yl)-3,4-dihydroisoquinolin-1(2H)-one] | < 0.05 nM |
| COc1cc(CN2CCc3c(cc(Cn4cnn(C)c4=N)cc3-c3ncc(F)cc3C)C2=O)cc(OC)c1 [Example 124, 2-(3,5-Dimethoxybenzyl)-5-(5-fluoro-3-methylpyridin-2-yl)-7-((5-imino-1-methyl-1,5-dihydro-4H-1,2,4-triazol-4-yl)methyl)-3,4-dihydroisoquinolin-1(2H)-one] | 0.13 nM |
